Measurements as given in the BET-seq Pho4 binding data (Le et al. 2018).
Some of the results follow. The energies were worked out here from pooled read counts, against the library average; single values are noisy.

These sequences were tested against T1, Pho4 (S. cerevisiae) (UniProt P07270) (assay: relative binding free energy (BET-seq); higher = weaker binding). Details: reference: library average.
T1 sequence: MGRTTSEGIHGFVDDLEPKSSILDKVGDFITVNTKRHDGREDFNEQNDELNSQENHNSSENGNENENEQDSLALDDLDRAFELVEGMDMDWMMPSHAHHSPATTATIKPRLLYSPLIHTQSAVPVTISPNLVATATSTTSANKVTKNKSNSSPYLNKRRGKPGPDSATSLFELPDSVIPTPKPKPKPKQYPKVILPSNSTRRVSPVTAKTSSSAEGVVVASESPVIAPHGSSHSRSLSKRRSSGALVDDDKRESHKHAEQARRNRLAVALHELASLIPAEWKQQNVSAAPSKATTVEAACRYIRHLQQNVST

Sequence	relative binding free energy [kcal/mol]
GGATTCACGTGCGGTT	0.37
GTCAGCACGTGGTGGC	-0.13
AGTTACACGTGTGTGA	0.12
TTGTACACGTGTCTTA	-0.02
CGTGTCACGTGTGTTC	0.12
AGTTGCACGTGTGCGA	-0.1
CTGAGCACGTGGTAAT	-0.02
AATCTCACGTGTTTTA	0.17
GGGAACACGTGTCGTG	-0.04
TTGTTCACGTGCTGTT	0.22
TAGTTCACGTGCGGAG	0.19
AAGAGCACGTGATGTT	-0.06
GTGCTCACGTGGGCGC	0.18
TGCTTCACGTGTAATT	0.38
CGCGGCACGTGTAGGT	-0.05
AAGGGCACGTGGTTTT	-0.1
GGATACACGTGTTTTT	0.24
CTGGTCACGTGGCGGT	-0.03
AAATTCACGTGTGTTG	0.29
TTAGGCACGTGAGAGG	0.11
ATGACCACGTGGGTGG	-0.3
CGGGACACGTGAGTTA	0.33
CATATCACGTGTAAGG	0.3
TTCGTCACGTGTCATG	0.16
GTAGGCACGTGCGTTT	-0.08

Sequence	relative binding free energy [kcal/mol]
GTTTACACGTGGTCTG	0
TGAAGCACGTGCTTGT	-0.05
GCGGACACGTGGGGCG	0.02
GATGGCACGTGTTGCT	-0.01
TTTAGCACGTGAAATT	0.2
GGGTCCACGTGGTTTT	0.14
GGGGTCACGTGTGGTT	0.24
TTCAGCACGTGGGTTT	-0.16
AAAGTCACGTGGCGGA	0.08
GAGATCACGTGCAGGT	0.31
TGTGGCACGTGTGCAG	-0.11
GGGCCCACGTGGGGGA	-0.22
GTGGGCACGTGGCATG	-0.2
TACTACACGTGGTTGT	0.05
TTTGACACGTGCAATT	0.21
GGGAGCACGTGTAATT	0.09
AGTAACACGTGGGAGG	-0.14
TGAGCCACGTGTTGTA	-0.08
CTAGGCACGTGTTCGG	-0.13
GATCTCACGTGTTGTA	0.24
AATATCACGTGGGTTG	0
TAGTGCACGTGGTTGC	0
TGAATCACGTGTGCGT	0.11
GTATTCACGTGGGGGG	0.13
GGAGTCACGTGACAGG	0.15

Sequence	relative binding free energy [kcal/mol]
AGCTTCACGTGTCGGA	0.37
GTGCTCACGTGGGATT	0.13
TAGTTCACGTGTATTG	0.22
GGGGGCACGTGAGGGG	0.16
AATATCACGTGGCTGT	-0.01
AATTACACGTGTGAGT	0.17
GTAAGCACGTGGTGGC	-0.09
GGCGTCACGTGTGAGG	0.16
ATGTACACGTGTTAAA	0.13
GTATGCACGTGGGTGA	-0.1
GTCGTCACGTGAGTGC	0.29
TGGGGCACGTGGGTAA	-0.13
GTCTGCACGTGGTTTA	-0.01
GGAACCACGTGGGTTT	-0.01
TAGGTCACGTGTGAGC	0.23
GGGGTCACGTGCCACG	0.15
ATGGACACGTGTCTGT	0.01
GCTCACACGTGTGGGG	0.17
TGGGACACGTGAGTGT	0.19
GGTAGCACGTGCTTGG	-0.02
GAGGTCACGTGTAGGG	0.08
TAGCTCACGTGGTGCG	0.13
TCGGACACGTGGAGTG	0
AATGGCACGTGCTGAA	0.06
TTGGCCACGTGATCGT	0.08

Sequence	relative binding free energy [kcal/mol]
TAGATCACGTGGGCTG	-0.05
AGGGTCACGTGTGTGT	0.13
GCGGGCACGTGTGTCG	-0.02
TGTGGCACGTGGGTTG	-0.13
ATGTGCACGTGATGTC	0.1
TTTTCCACGTGGTTCG	0.08
ATGTTCACGTGAACTG	0.42
GCGGTCACGTGGAAGG	0.32
TTATGCACGTGGGCGC	-0.01
GTGTACACGTGGCATG	-0.05
GGAGGCACGTGAGGTG	0.21
ATGTCCACGTGAATGG	0.26
GTGGGCACGTGTTTAC	-0.02
GGTGGCACGTGTGAGG	0.05
CATTTCACGTGTAATT	0.3
TTGGCCACGTGTTTAA	-0.07
GACGACACGTGTGGAG	0.44
TTTAACACGTGAGCTG	0.21
TTTGTCACGTGCTTAT	-0.05
AGTTTCACGTGTGCCT	0.38
ATATACACGTGTAGTA	0.08
GGCTTCACGTGAGATT	0.6
CATATCACGTGCGGGG	0.07
GTAGGCACGTGTTGAG	-0.03
AAGGGCACGTGGGTTA	-0.24

Sequence	relative binding free energy [kcal/mol]
TTTAACACGTGTCTTG	-0.03
TTAGTCACGTGGGTCG	-0.08
TAAAGCACGTGGCAGT	-0.15
TTGTCCACGTGCGAGG	0.06
GTAGACACGTGTGGCA	0.03
GGTTTCACGTGGGGCA	0.16
CGAAGCACGTGGGTGC	-0.14
AAATTCACGTGTATTA	0.27
AGTCGCACGTGAATGT	0.14
CGGGTCACGTGATTTG	0.26
TGAGGCACGTGTTAGA	-0.05
GTGTCCACGTGTGTAT	0.18
TAAGACACGTGTTATG	-0.07
ATGCACACGTGTTGTG	-0.11
TGCGGCACGTGGTAGG	-0.17
TAGCGCACGTGTGTGA	0
CATGGCACGTGGGCAT	-0.24
GGTAACACGTGTGAAG	0.2
GGATTCACGTGTCGGA	0.35
TGCGACACGTGTGTTG	-0.08
GTTGTCACGTGGCTAA	0.12
GGGTACACGTGATTGT	0.11
TTATGCACGTGGTCAG	-0.28
TGTTTCACGTGGAGTA	0.24
ATATGCACGTGTTTTA	-0.04

Sequence	relative binding free energy [kcal/mol]
CTGTGCACGTGAGGTA	0.1
CTTAGCACGTGTCTGG	-0.09
TAGTTCACGTGGGACT	0.26
TACCGCACGTGGGGTG	-0.18
CTTTTCACGTGTGGCA	0.29
TTATGCACGTGTGGAA	0.03
CGAGACACGTGGTGGA	0.03
CGTTCCACGTGTTGTG	0.11
TGTATCACGTGCTATG	-0.08
AGGGGCACGTGCGGAC	-0.21
ATGTACACGTGAAGGT	0.33
GTGAACACGTGGAGTA	0.04
GGGTTCACGTGTAATC	0.62
TGTAACACGTGGAATT	0.13
TTTTGCACGTGCTCAG	-0.07
GGCATCACGTGTGTTT	0.17
TAAACCACGTGGTGGT	-0.19
TGGGGCACGTGGATGA	-0.08
TTTGTCACGTGAGGGC	0.24
GGAGGCACGTGAAAGG	0.23
TTTCGCACGTGATATA	-0.02
